Test results taken from the supplement of paper PMC3334620.
Over roughly 33,000 sequences, “E-score (-0.5 to 0.5)” has its median near -0.035; the highest 2% begin near 0.34. This is one part of the list.

biological target: T1, Mot3 (UniProt P54785); test: PBM E-score (8-mer binding enrichment) (E-score (-0.5 to 0.5)); higher = stronger / more preferred TF binding; most listed sequences are background and not binding sites; settings: protein concentration: 200 nM; construct: GST-full length
T1 sequence: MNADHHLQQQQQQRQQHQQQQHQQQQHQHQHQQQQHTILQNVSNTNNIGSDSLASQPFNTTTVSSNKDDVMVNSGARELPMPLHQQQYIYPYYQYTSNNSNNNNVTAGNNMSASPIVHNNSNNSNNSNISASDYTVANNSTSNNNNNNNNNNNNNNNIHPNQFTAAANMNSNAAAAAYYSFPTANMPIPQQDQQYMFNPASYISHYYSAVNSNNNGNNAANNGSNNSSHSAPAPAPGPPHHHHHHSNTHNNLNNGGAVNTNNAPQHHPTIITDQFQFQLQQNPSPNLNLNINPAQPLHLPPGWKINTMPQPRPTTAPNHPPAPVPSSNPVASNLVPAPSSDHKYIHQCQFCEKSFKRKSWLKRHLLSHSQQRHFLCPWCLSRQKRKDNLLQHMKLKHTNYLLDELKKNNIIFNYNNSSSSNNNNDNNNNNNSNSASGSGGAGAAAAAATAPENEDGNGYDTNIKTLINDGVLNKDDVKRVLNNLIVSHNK
Procedure: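 Universal 'all 10-mer' protein binding microarrays (Agilent AMADID 015681) probed with GST-tagged S. cerevisiae TFs (full-length or DBD) made by in vitro transcription/translation (PURExpress), about 100-200 nM. Bound TF was detected with fluorescent anti-GST. Each ungapped 8-mer (which stands for itself and its reverse complement) is scored by the PBM enrichment score (E-score), a modified Wilcoxon-Mann-Whitney statistic from -0.5 to +0.5, computed with the Universal PBM Analysis Suite. Scale: above 0.35 generally sequence-specific binding.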

Sequence | PBM E-score
GCTATTCC | -0.25
CGTCCTTA | -0.185
GCGGGTCC | -0.274
CTGGCTCA | -0.196
CGTGGGAC | -0.283
TCGAACAA | 0.0662
AATATAGG | 0.202
GAATTGAC | 0.0399
ATGCCTTG | 0.267
CCAGGGCG | -0.231
CTCCACGA | -0.171
ACATCTGG | -0.189
GAAGGAGC | -0.251
CATATTCG | -0.0946
GTAGACAA | 0.219
GCGTATAA | 0.239
CGCGCTCC | -0.0668
AACTCCGG | -0.178
GAGTGCTA | -0.275
ATCTATAG | -0.0456
CTGATCCA | 0.0225
ACATCAAG | 0.119
TGAACCAA | 0.165
AAATCAAA | 0.067
ATCGCTAC | -0.15

Sequence | PBM E-score
AGTTACCG | -0.0154
ACGGTATG | 0.136
AGTTTGTC | -0.0507
AATACGGG | 0.0453
CGCCCGTC | -0.113
ACAGCGCC | -0.0469
AAGACCTA | -0.111
ACAGGTCA | 0.0389
CTCGGGTA | -0.0157
GTAAGGTA | 0.321
GCGCCGCC | -0.0908
ATTCTACG | 0.105
GTGTACTA | 0.255
GTCGGAAA | -0.109
AAACCCCC | -0.246
AGACTTTC | -0.187
CTATCTCA | -0.0109
ACATAATC | 0.225
CAAGCTTG | 0.00285
ATGCCCTG | -0.124
AGAGGAAT | 0.0386
GATGCGTA | 0.124
CAGTTCTC | -0.231
ACCTTCTG | 0.101
AGAGTATA | -0.0252

Sequence | PBM E-score
GAGTTCCC | -0.129
ATGAGCCG | -0.229
AGTAGATC | -0.0347
CTGAGTGA | -0.00071
AAGTCCCA | -0.24
CAACAGTA | 0.154
AATATTCA | 0.0946
GCTGTCGA | -0.12
CACTTACA | 0.16
CCCTATCC | -0.222
AAAGAAAT | 0.147
GGGGCTCA | -0.219
AAAAAGCG | 0.11
ACCGACAA | -0.11
CGGGACCA | -0.282
AATTTCAT | -0.177
CATTTGAG | 0.0703
CACTGCTG | -0.31
ATTCCCCG | -0.0331
AGTTTATG | -0.0194
TCATGAAA | -0.27
GAGCCGGC | -0.326
CGTGAGCC | -0.104
CAGTTCGG | -0.224
ATGTGTCG | 0.0871

Sequence | PBM E-score
CACCTCTC | -0.213
CTAAGATA | 0.0339
GTTTTCGA | -0.00025
AAAGTTCC | -0.118
CATTGGTC | -0.138
CACAAATC | -0.034
AACGAAAG | 0.084
GGGGTGGA | -0.364
AATGTAGT | 0.244
ACTTGAGA | -0.0384
TCTACAAA | 0.17
AACATGTA | 0.42
AATCTTAT | 0.0528
ATCAATTA | 0.193
ACTTTCCG | -0.182
AGCAATAC | 0.117
TGTGTGAA | 0.254
AGGTGGCG | -0.167
ACCTTGGG | -0.132
TCAAACAA | 0.0814
ATGTTCTG | 0.105
CCATTCCG | -0.122
AAGTCAAG | -0.128
CTTTGAAC | -0.158
CGGATTGC | -0.247

Sequence | PBM E-score
AGCGCAAC | 0.0365
CACTTCAC | 0.011
AATAAGGC | 0.175
GAGAAATA | 0.0575
ATCCAGAA | 0.0867
ATCGCCTA | -0.0997
GGGTACCA | -0.0217
ACAGAGTA | 0.174
ATTAAGAA | 0.161
GCATTAGC | -0.23
CGGTCGAA | -0.156
CAGTCTGA | -0.29
ATTCTCCC | -0.0493
GGACCTCC | -0.216
CCCGTTTA | 0.187
CACCCCAA | -0.014
ACAAATAG | 0.12
AAATCGTT | 0.0275
CCCTGCCA | -0.199
CCAGGCAG | -0.119
CCGTATAA | -0.0706
CCGGGGGC | -0.235
ACAGAGCT | -0.118
CAGTCAGA | -0.198
TACCTTAA | 0.239

Sequence | PBM E-score
GACTATAC | -0.0783
ACGTTTTA | 0.16
CTCCTATC | -0.0146
ATGCGGGA | -0.0816
ATTTTAAA | 0.132
GTGTAAAA | 0.377
AAGTAGGT | 0.171
AATACACT | 0.259
GCCTTTAC | 0.357
GGTATTGA | -0.0693
AGTGCTTA | -0.00158
CTTGCCAC | -0.112
GTTGGGCA | 0.203
AGTGGGCC | -0.196
GGTCTATA | 0.0699
ACTTTTGA | 0.0586
ACCATCGC | 0.0767
ACACACTG | 0.059
CGACTTCA | -0.0501
ACAATACG | 0.132
CTGCCAGC | -0.192
CCAGAGTA | -0.0687
ACTGCAAG | 0.0351
CACTTATA | -0.0358
TCTTAGAA | 0.0228

Sequence | PBM E-score
GGAGAGTA | -0.322
CATGTAAG | 0.398
CTAAGGCC | -0.0134
AATCCACT | 0.0475
GCCTCGCA | -0.156
ACGTGTCT | 0.14
CCGAGGAA | -0.00332
CCCAACCG | -0.231
AGGATTGG | -0.12
AGAAGCAA | 0.146
AACCGCTC | -0.0669
AGAGATCG | -0.0504
CACAAGTA | 0.0666
ACCCATCG | -0.107
CCTACACA | 0.311
ATGCCGGG | -0.234
ATGAGCAG | -0.0848
ACTTTGCG | -0.0351
ACCATCCG | -0.0418
TCAGCTGA | 0.111
AGACAACG | 0.0923
CGGATGAG | -0.235
ACGGTAGA | -0.183
AAAAGAGA | -0.0482
AATTATAC | 0.147

Sequence | PBM E-score
CAATGACC | -0.0882
GCGTGATA | -0.0238
CTGAGGTA | -0.0122
CACTAAGG | -0.0602
ACACATAT | 0.176
ACAGTGCA | 0.0846
CACGGATA | 0.093
ACTTCATA | -0.0786
AATAGCCG | 0.0694
AAAGTGCC | 0.155
GCTATTGA | -0.0881
CATTGTTC | 0.102
AACATCCG | 0.144
AACTTTGC | 0.0198
CGAGTTTA | -0.0664
GTTGCTTA | 0.0798
CCAAATTA | 0.128
AAACCGAA | -0.0393
CCCTAACG | -0.0373
CCACTTTA | -0.0759
GCGTGTTA | 0.393
AGCGAGCC | -0.153
AGAGAGTC | -0.265
ACCCAAGA | -0.165
GACGTACA | 0.161

Sequence | PBM E-score
GTTTCAGA | -0.0444
CCGTCGGC | -0.214
GAAATAGC | 0.114
TGATCAAA | -0.236
ATAGTAAA | 0.247
CAACCCGG | -0.133
CCAGTCAC | -0.0506
CGTTACCC | -0.19
CTGCGGCA | -0.211
AACCGCCA | -0.0893
ACTCCGAC | -0.0607
ATGCTAAC | 0.156
CTCAGAAG | -0.185
ACGGGTGG | -0.142
CATAACAA | 0.302
AGACCGCT | -0.17
CCACCTAA | -0.0127
CAATGGTG | -0.164
ATGGTTCC | 0.0253
